Reference: the supplement of paper PMC4967469
IC50 is the fitted dose that halves viability relative to control wells, and lower means more sensitive; fits outside the tested doses are given as limits. AUC, from the same fit, is the share of area under the viability curve across the 256-fold dose range; it is 1 without any effect and falls as sensitivity rises. Any top dose called inferred was derived from the fitted curves, not read from the paper. For part of these data: Drugs with an entry number were screened twice under separate entries, and the two screens often disagree.

How the values were obtained:
Test in all cases: Viability of human cancer cell lines after 72 h of drug (GDSC screen)
XMD11-85h = compound: COc1cc(C(=O)NC2CCN(C)CC2)ccc1Nc1ncc2c(n1)N(C1CCCC1)CCC(=O)N2C(C)C [XMD11-85h]; conditions: top dose 10 µM; top dose inferred
Experimental: (§1)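 Human cancer cell lines in 384-well plates, medium with 10% serum, drug for 72 h over a 256-fold dose range (nine 2-fold or five 4-fold steps up to the top dose). Adherent lines were fixed and stained with the nucleic acid dye Syto60, suspension lines read with resazurin; signal relative to control wells, capped at 0 and 100%. One two-parameter sigmoid per drug and line, fitted in a mixed model over all curves with the slope shared within a line.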

AZD6482 = compound: Cc1cc([C@@H](C)Nc2ccccc2C(=O)O)c2nc(N3CCOCC3)cc(=O)n2c1 [AZD6482]
Experimental: as §1

BMN-673 = compound: Cn1ncnc1[C@H]1c2n[nH]c(=O)c3cc(F)cc(c23)N[C@@H]1c1ccc(F)cc1 [BMN-673]; conditions: top dose 10 µM; top dose inferred
Experimental: as §1

MLN4924 = compound: NS(=O)(=O)OC[C@@H]1C[C@@H](n2ccc3c(N[C@H]4CCc5ccccc54)ncnc32)C[C@@H]1O [MLN4924]; conditions: top dose 1 µM; top dose inferred
Experimental: as §1

[1] = top dose 5 µM, screen: GDSC drug entry 1066, top dose inferred
[2] = top dose 5.12 µM, screen: GDSC drug entry 156

| Cell Line | AUC (XMD11-85h) | IC50 (XMD11-85h) | AUC (AZD6482; [1]) | IC50 (AZD6482; [1]) | AUC (AZD6482; [2]) | IC50 (AZD6482; [2]) | AUC (BMN-673) | IC50 (BMN-673) | AUC (MLN4924) | IC50 (MLN4924) |
| --- | --- | --- | --- | --- | --- | --- | --- | --- | --- | --- |
| OCI-LY-19 (B-cell lymphoma, suspension) | 0.973 | > 10 µM | 0.927 | > 5 µM | 0.869 | 4.12 µM | 0.711 | 2.32 µM | 0.973 | > 1 µM |
| SU-DHL-10 (B-cell lymphoma, suspension) | 0.99 | > 10 µM | 0.814 | 1.82 µM | 0.205 | 0.0616 µM | 0.998 | > 10 µM | 0.998 | > 1 µM |
| NCI-H1770 (non-small cell lung carcinoma, suspension) | 0.99 | > 10 µM | 0.978 | > 5 µM | 0.964 | > 5.12 µM | 0.989 | > 10 µM | 0.992 | > 1 µM |
| LOXIMVI (melanoma, semi-adherent) | 0.919 | > 10 µM | – | – | 0.958 | > 5.12 µM | 0.554 | 0.863 µM | 0.642 | 0.147 µM |
| HCC1428 (breast, adherent) | 0.981 | > 10 µM | 0.963 | > 5 µM | 0.963 | > 5.12 µM | 0.95 | > 10 µM | 0.483 | 0.0558 µM |
| EN (endometrium, adherent) | 0.982 | > 10 µM | 0.961 | > 5 µM | 0.984 | > 5.12 µM | 0.946 | > 10 µM | 0.85 | > 1 µM |
| NCI-H747 (large intestine, adherent) | 0.939 | > 10 µM | – | – | 0.894 | > 5.12 µM | 0.897 | > 10 µM | 0.956 | > 1 µM |
| NCI-H847 (small cell lung carcinoma, adherent) | 0.962 | > 10 µM | 0.982 | > 5 µM | 0.943 | > 5.12 µM | 0.98 | > 10 µM | 0.415 | 0.0383 µM |
| A673 (rhabdomyosarcoma, adherent) | 0.989 | > 10 µM | 0.921 | > 5 µM | 0.948 | > 5.12 µM | 0.159 | 0.066 µM | 0.622 | 0.13 µM |
| EW-11 (Ewing sarcoma, adherent) | 0.913 | > 10 µM | 0.976 | > 5 µM | 0.898 | > 5.12 µM | 0.597 | 1.25 µM | 0.788 | 0.585 µM |
| RS4-11 (leukaemia, suspension) | 0.891 | 9.92 µM | 0.675 | 0.914 µM | 0.624 | 0.682 µM | 0.648 | 1.55 µM | 0.835 | 0.578 µM |
| NCI-H1436 (small cell lung carcinoma, suspension) | 0.984 | > 10 µM | 0.892 | > 5 µM | 0.944 | > 5.12 µM | 0.982 | > 10 µM | 0.984 | > 1 µM |
| SW982 (soft tissue, adherent) | 0.923 | > 10 µM | 0.777 | 2.07 µM | 0.267 | 0.0675 µM | 0.645 | 1.6 µM | 0.754 | 0.345 µM |
| ONS-76 (medulloblastoma, adherent) | 0.964 | > 10 µM | 0.973 | > 5 µM | 0.92 | > 5.12 µM | 0.714 | 2.65 µM | 0.698 | 0.237 µM |
| SNB75 (glioma, adherent) | 0.95 | > 10 µM | 0.962 | > 5 µM | 0.704 | 1.58 µM | 0.849 | > 10 µM | 0.928 | > 1 µM |
| LK-2 (lung squamous cell carcinoma, adherent) | 0.97 | > 10 µM | 0.969 | > 5 µM | 0.988 | > 5.12 µM | 0.561 | 0.91 µM | 0.712 | 0.238 µM |
| VCaP (prostate, adherent) | 0.986 | > 10 µM | – | – | 0.888 | > 5.12 µM | 0.91 | > 10 µM | 0.773 | 0.403 µM |
| OS-RC-2 (kidney, adherent) | 0.927 | > 10 µM | 0.866 | > 5 µM | 0.579 | 0.579 µM | 0.866 | > 10 µM | 0.726 | 0.374 µM |
| 8305C (thyroid, adherent) | 0.96 | > 10 µM | 0.891 | > 5 µM | 0.8 | 3.42 µM | 0.888 | > 10 µM | 0.976 | > 1 µM |
| NCI-H441 (lung adenocarcinoma, adherent) | 0.956 | > 10 µM | – | – | 0.958 | > 5.12 µM | 0.877 | > 10 µM | 0.893 | > 1 µM |
| COLO-668 (small cell lung carcinoma, adherent) | 0.987 | > 10 µM | 0.895 | > 5 µM | 0.926 | > 5.12 µM | 0.797 | 4.72 µM | 0.87 | 0.933 µM |

| Cell Line | AUC (XMD11-85h) | IC50 (XMD11-85h) | AUC (AZD6482; [1]) | IC50 (AZD6482; [1]) | AUC (AZD6482; [2]) | IC50 (AZD6482; [2]) | AUC (BMN-673) | IC50 (BMN-673) | AUC (MLN4924) | IC50 (MLN4924) |
| --- | --- | --- | --- | --- | --- | --- | --- | --- | --- | --- |
| LS-180 (large intestine, adherent) | 0.976 | > 10 µM | 0.985 | > 5 µM | 0.769 | 2.21 µM | 0.865 | > 10 µM | 0.846 | 0.886 µM |
| CADO-ES1 (Ewing sarcoma, suspension) | 0.977 | > 10 µM | 0.983 | > 5 µM | – | – | 0.602 | 1.2 µM | 0.915 | > 1 µM |
| SNG-M (endometrium, adherent) | 0.789 | 4.33 µM | 0.912 | > 5 µM | 0.949 | > 5.12 µM | 0.448 | 0.453 µM | 0.609 | 0.124 µM |
| SBC-1 (small cell lung carcinoma, suspension) | 0.796 | 4.5 µM | 0.968 | > 5 µM | 0.956 | > 5.12 µM | 0.961 | > 10 µM | 0.733 | 0.28 µM |
| RT4 (bladder, adherent) | 0.985 | > 10 µM | 0.987 | > 5 µM | 0.987 | > 5.12 µM | 0.781 | 4.39 µM | 0.891 | > 1 µM |
| HCC202 (breast, adherent) | 0.977 | > 10 µM | 0.978 | > 5 µM | – | – | 0.9 | > 10 µM | 0.921 | > 1 µM |
| KINGS-1 (glioma, adherent) | 0.97 | > 10 µM | 0.837 | > 5 µM | 0.818 | 4.41 µM | 0.898 | > 10 µM | 0.908 | > 1 µM |
| GB-1 (glioma, adherent) | 0.94 | > 10 µM | 0.98 | > 5 µM | 0.901 | > 5.12 µM | 0.507 | 0.655 µM | 0.749 | 0.376 µM |
| H2591 (mesothelioma, adherent) | 0.971 | > 10 µM | 0.908 | > 5 µM | 0.933 | > 5.12 µM | 0.926 | > 10 µM | 0.719 | 0.32 µM |
| PWR-1E (prostate, adherent) | 0.986 | > 10 µM | 0.905 | > 5 µM | – | – | 0.705 | 2.36 µM | 0.688 | 0.21 µM |
| NCI-H2066 (small cell lung carcinoma, adherent) | 0.977 | > 10 µM | 0.956 | > 5 µM | – | – | 0.916 | > 10 µM | 0.913 | > 1 µM |
| ETK-1 (biliary tract, adherent) | 0.875 | > 10 µM | 0.908 | > 5 µM | 0.961 | > 5.12 µM | 0.514 | 0.685 µM | 0.831 | 0.751 µM |
| EW-7 (Ewing sarcoma, semi-adherent) | 0.965 | > 10 µM | 0.773 | 1.72 µM | 0.666 | – | 0.146 | 0.0606 µM | 0.809 | 0.446 µM |
| IHH-4 (thyroid, semi-adherent) | 0.965 | > 10 µM | 0.942 | > 5 µM | 0.878 | 3.48 µM | 0.094 | 0.0446 µM | 0.583 | 0.1 µM |
| NCI-H1155 (large cell lung carcinoma, suspension) | 0.985 | > 10 µM | 0.909 | 4.81 µM | 0.993 | > 5.12 µM | 0.782 | 3.43 µM | 0.871 | 0.668 µM |
| NCI-H1355 (lung adenocarcinoma, adherent) | 0.929 | > 10 µM | 0.867 | > 5 µM | 0.895 | > 5.12 µM | 0.808 | 8.32 µM | 0.851 | > 1 µM |
| H9 (lymphoid neoplasm, suspension) | 0.887 | 7.76 µM | 0.992 | > 5 µM | 0.989 | > 5.12 µM | 0.787 | 3.55 µM | 0.944 | > 1 µM |
| SK-MEL-3 (melanoma, adherent) | 0.97 | > 10 µM | 0.941 | > 5 µM | 0.881 | > 5.12 µM | 0.855 | > 10 µM | 0.924 | > 1 µM |
| K2 (melanoma, adherent) | 0.927 | > 10 µM | 0.974 | > 5 µM | 0.885 | > 5.12 µM | 0.879 | > 10 µM | 0.817 | 0.786 µM |
| TE-8 (oesophagus, adherent) | 0.953 | > 10 µM | 0.885 | > 5 µM | 0.966 | > 5.12 µM | 0.692 | 2.26 µM | 0.9 | > 1 µM |
